# Inconclusive means that the source gave no clear call. Such entries were picked first, then a sample of the others. For part of these data: Where the call is inconclusive, the potency comes from a doubtful curve fit. The source made the active and inactive calls. Calls come from the whole dose curve; as a rule, active = well fitted curve in the direction sought with a large enough effect; inconclusive = small, poorly fitted or top-dose-only effect, or another doubt; inactive = no such curve, though single readings can be large; an effect the other way counts as inactive or inconclusive. Numbered stars: 1 amine (or outer) side, 2 acyl side, 3 side chain; on linkers, the order of the positions; unused ones are H or OH. Non-standard residues stand in square brackets, D forms with d. Square brackets hold non-standard residues; d marks the D form. Residues, ends and D or L forms follow the SMILES beside them. Peptide text beside a SMILES is read from it. *: point of attachment. Dolaproine = CO[C@@H]([C@@H]1CCCN1)[C@@H](C)C(=O)O; Dil = CC[C@H](C)[C@H](NC)[C@@H](CC(=O)O)OC; X9 = O=C([C@@H](CC(O)CCl)O[*:1])[*:2]; Doe = c1ccc(C[C@H](N*)c2nccs2)cc1; aIle = CC[C@@H](C)[C@H](N)C(=O)O; NMeV = CN[C@H](C(=O)O)C(C)C; NMeA = CN[C@@H](C)C(=O)O; Aib = CC(C)(N)C(=O)O; βAla = NCCC(=O)O
# Key:
# [1] = tested on: C33A; assay: Primary qHTS to identify gynecologic anti-cancer compounds using libraries of approved drugs and bioactive compounds (AID 1345084); conditions: Gynecologic cancer cell panel viability, ATPlite luminescence, 48 h; series mostly up to 57.5 µM; note: nearly all actives have a fitted effect of over 55% in size
# In short: (§1)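 Cytotoxicity screen measuring ATP content by luciferase luminescence. Each compound is applied at five concentrations for 48 h at 37 C with 5% CO2.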
# [2] = tested on: CAOV3; assay: as above; conditions: Gynecologic cancer cell panel viability, ATPlite luminescence, 48 h; series mostly up to 57.5 µM
# In short: as §1
# [3] = tested on: Es-2; assay: as above; conditions: Gynecologic cancer cell panel viability, ATPlite luminescence, 48 h; series mostly up to 57.5 µM
# In short: as §1
# [4] = tested on: HeLa; assay: as above; conditions: Gynecologic cancer cell panel viability, ATPlite luminescence, 48 h; series mostly up to 57.5 µM
# In short: as §1
# [5] = tested on: Hek293T; assay: as above; conditions: Gynecologic cancer cell panel viability, ATPlite luminescence, 48 h, control line for the selectivity index; series mostly up to 57.5 µM
# In short: as §1
# [6] = tested on: OV90; assay: as above; conditions: Gynecologic cancer cell panel viability, ATPlite luminescence, 48 h; series mostly up to 57.5 µM
# In short: as §1
# [7] = tested on: CASKI; assay: as above; conditions: Gynecologic cancer cell panel viability, ATPlite luminescence, 48 h; series mostly up to 57.5 µM
# In short: as §1
# [8] = tested on: JEG-3; assay: as above; conditions: Gynecologic cancer cell panel viability, ATPlite luminescence, 48 h; series mostly up to 57.5 µM
# In short: as §1
# [9] = tested on: PC49; assay: qHTS profiling for inhibitors of Plasmodium falciparum proliferation (AID 504749); note: nearly all actives have a fitted effect of over 60% in size; conditions: P. falciparum in erythrocytes, SYBR Green DNA, 72 h; series mostly up to 28.7 µM
# In short: (§2)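 Each compound contacts P. falciparum-infected red blood cells for 72 h at 37 C; lysis buffer (Tris, EDTA, saponin, Triton X, SYBR Green I) is added and fluorescence measured next morning; values normalized to controls.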
# [10] = tested on: TAB109; assay: as above; conditions: P. falciparum in erythrocytes, SYBR Green DNA, 72 h; series mostly up to 28.7 µM
# In short: as §2
# [11] = tested on: TAB113; assay: as above; conditions: P. falciparum in erythrocytes, SYBR Green DNA, 72 h; series mostly up to 28.7 µM
# In short: as §2
# [12] = tested on: TAB165; assay: as above; conditions: P. falciparum in erythrocytes, SYBR Green DNA, 72 h; series mostly up to 28.7 µM
# In short: as §2
# [13] = tested on: W2; assay: as above; conditions: P. falciparum in erythrocytes, SYBR Green DNA, 72 h; series mostly up to 28.7 µM
# In short: as §2
# Potency is the fitted concentration of half-maximal effect; tags give direction and shape of the fitted curve.
smiles,measurement,setting,value
CC[C@@H](C)[C@H]1C(=O)O[C@H](C(C)C)C(=O)N(C)[C@@H](C(C)C)C(=O)O[C@H](C(C)C)C(=O)N(C)[C@@H](C(C)C)C(=O)O[C@H](C(C)C)C(=O)N1C,Potency,[1],"inconclusive: 12600 nM [cytotoxic, single point]"
same,Potency,[2],"inconclusive: 12600 nM [cytotoxic, single point]"
same,Potency,[3],"inconclusive: 11200 nM [cytotoxic, single point]"
same,Potency,[4],"inconclusive: 12600 nM [cytotoxic, partial curve, poor fit]"
same,Potency,[5],"inconclusive: 12600 nM [cytotoxic, single point]"
same,Potency,[6],"inconclusive: 12600 nM [cytotoxic, single point]"
CC(=O)NCCCOc1ccc(C(=O)N2CCC(N3C(=O)CCc4ccccc43)CC2)cc1,Potency,[1],inactive
same,Potency,[2],"inconclusive: 31600 nM [cytotoxic, single point]"
same,Potency,[4],inactive
CC12CCC3C(CCC4(O)CC(O)CCC34C=O)C1(O)CCC2C1=CC(=O)OC1 (stereo unspecified),Potency,[1],active: 1000 nM
same,Potency,[2],active: 2000 nM
same,Potency,[7],active: 7080 nM
same,Potency,[4],active: 1780 nM
same,Potency,[5],active: 1260 nM
same,Potency,[8],"inconclusive: 5620 nM [cytotoxic, single point]"
same,Potency,[6],active: 7080 nM
CC[C@@H]1C[C@H]2CC[C@H](O2)[C@H](C)C(=O)O[C@@H](C)C[C@@H]2CC[C@@H](O2)[C@@H](C)C(=O)O[C@H](CC)C[C@H]2CC[C@H](O2)[C@H](C)C(=O)O[C@@H](C)C[C@@H]2CC[C@@H](O2)[C@@H](C)C(=O)O1,Potency,[1],active: 316 nM
same,Potency,[2],active: 398 nM
same,Potency,[7],active: 447 nM
same,Potency,[4],active: 794 nM
same,Potency,[5],active: 631 nM
same,Potency,[6],active: 398 nM
C=C1[C@@H](O)[C@]2(O)OC[C@]34C2[C@]2(C)C(C[C@H]3OC(=O)[C@H](O)[C@@]14O)C(C)=CC(=O)[C@H]2O (stereo partly specified),Potency,[1],"inconclusive: 12600 nM [cytotoxic, partial curve, poor fit]"
same,Potency,[2],"inconclusive: 20000 nM [cytotoxic, single point]"
same,Potency,[5],"inconclusive: 8910 nM [cytotoxic, partial curve, poor fit]"
same,Potency,[8],inactive
C[C@H]1O[C@@H](O[C@H]2CC[C@]3(C=O)C4CC[C@]5(C)[C@@H](C6=CC(=O)OC6)CC[C@]5(O)[C@@H]4CC[C@]3(O)C2)C[C@@H](O)[C@@H]1O (stereo partly specified),Potency,[1],active: 89.1 nM
same,Potency,[2],active: 112 nM
same,Potency,[7],active: 355 nM
same,Potency,[5],active: 141 nM
same,Potency,[8],"inconclusive: 282 nM [cytotoxic, partial curve, poor fit]"
same,Potency,[6],active: 316 nM
CCc1nn(C)c(C(=O)NCc2ccc(Oc3ccc(C)cc3)cc2)c1Cl,Potency,[1],"inconclusive: 316 nM [cytotoxic, full curve]"
same,Potency,[7],"inconclusive: 316 nM [cytotoxic, full curve, poor fit]"
same,Potency,[5],"inconclusive: 3980 nM [cytotoxic, full curve, poor fit]"
same,Potency,[6],active: 631 nM
CO[C@H]1[C@H](O)[C@H](O[C@H]2CC[C@]3(C)C4CC[C@]5(C)[C@H](C6=CC(=O)OC6)CC[C@]5(O)C4CC[C@@H]3C2)O[C@@H](C)[C@@H]1O (stereo partly specified),Potency,[1],active: 89.1 nM
same,Potency,[2],active: 126 nM
same,Potency,[7],active: 224 nM
same,Potency,[5],active: 89.1 nM
same,Potency,[8],active: 178 nM
same,Potency,[6],active: 282 nM
CC[C@H](C)[C@@H]([C@@H](CC(=O)N1CCC[C@H]1[C@H](OC)[C@@H](C)C(=O)N[C@@H](Cc1ccccc1)c1nccs1)OC)N(C)C(=O)[C@@H](NC(=O)C(C)(C)N)C(C)C (H-[Aib]V[Dil][Dolaproine]-Doe),Potency,[1],inconclusive: 0.3 nM
same,Potency,[7],inconclusive: 2510 nM
same,Potency,[3],inconclusive: 1580 nM
same,Potency,[4],inconclusive: 39800 nM
same,Potency,[5],inactive
same,Potency,[8],inconclusive: 1410 nM
same,Potency,[6],inconclusive: 7940 nM
COc1ccc(CC2C(=O)NC(C)C(=O)N(C)C3Cc4ccc(cc4)Oc4cc(ccc4OC4OC(CO)C(O)C(O)C4O)CC(C(=O)NC(C)C(=O)NC(CCC(=O)O)C(=O)N2C)N(C)C3=O)cc1 (stereo unspecified),Potency,[1],"inconclusive: 11200 nM [cytotoxic, single point]"
same,Potency,[2],"inconclusive: 501 nM [cytotoxic, full curve, poor fit]"
same,Potency,[3],"inconclusive: 10000 nM [cytotoxic, single point]"
same,Potency,[5],"inconclusive: 3980 nM [cytotoxic, partial curve]"
CC(=O)OC[C@]12C[C@H](O)C(C)=C[C@H]1O[C@@H]1[C@H](O)[C@@H](OC(C)=O)[C@@]2(C)[C@]12CO2,Potency,[1],active: 447 nM
same,Potency,[2],inconclusive: 44.7 nM
same,Potency,[7],active: 31.6 nM
same,Potency,[4],active: 178 nM
same,Potency,[5],active: 89.1 nM
same,Potency,[8],active: 224 nM
same,Potency,[6],active: 12600 nM
COc1ccc(C(C)(C)C)cc1CN[C@H]1C2CCN(CC2)[C@H]1C(c1ccccc1)c1ccccc1,Potency,[1],"inconclusive: 35500 nM [cytotoxic, partial curve, poor fit]"
same,Potency,[2],inactive
same,Potency,[3],"inconclusive: 35500 nM [cytotoxic, single point]"
same,Potency,[4],inactive
CC[C@@H](C)[C@@H]1NC(=O)[C@@H]2CCCN2C(=O)[C@@H](CC(O)CCl)OC(=O)CCNC(=O)[C@H](C)N(C)C(=O)[C@H](C(C)C)N(C)C1=O (stereo partly specified) (cyclo([NMeA][βAla][X9]P[aIle][NMeV])),Potency,[1],active: 4470 nM
same,Potency,[2],active: 3160 nM
same,Potency,[3],active: 4470 nM
same,Potency,[4],"inconclusive: 3550 nM [cytotoxic, partial curve, poor fit]"
same,Potency,[5],"inconclusive: 5620 nM [cytotoxic, partial curve, poor fit]"
COC(C)(C)CCCC(C)C/C=C/C(C)=C/C(=O)OC(C)C (stereo unspecified),Potency,[9],"inconclusive: 12600 nM [inhibitor, single point]"
same,Potency,[10],inactive
same,Potency,[11],"inconclusive: 10000 nM [inhibitor, single point]"
same,Potency,[12],"inconclusive: 10000 nM [inhibitor, single point]"
O=C1NCN(c2ccccc2)C12CCN(CC1COc3ccccc3O1)CC2 (stereo unspecified),Potency,[13],"inconclusive: 6750 nM [inhibitor, partial curve, poor fit]"
CC(NC(C)(C)C)C(=O)c1cccc(Cl)c1 (stereo unspecified),Potency,[2],inactive
CN[C@H]1[C@H](O)[C@H](O[C@@H]2[C@@H](O)[C@H](O[C@H]3O[C@H]([C@H](C)O)[C@@H](O)[C@H](O)[C@H]3N)[C@@H](N)C[C@H]2N)OC[C@@]1(C)O,Potency,[2],inactive
same,Potency,[3],inactive
C[C@@H]1C[C@@H](O)[C@]2(O)O[C@@H]3C[C@@]4(C=O)C(CC[C@@H]5C4CC[C@]4(C)[C@@H](C6=CC(=O)OC6)CC[C@]54O)C[C@H]3O[C@@H]2O1 (stereo partly specified),Potency,[2],"inconclusive: 282 nM [cytotoxic, full curve, poor fit]"
same,Potency,[7],"inconclusive: 891 nM [cytotoxic, partial curve, poor fit]"
same,Potency,[3],inconclusive: 3980 nM
same,Potency,[4],"inconclusive: 126 nM [cytotoxic, full curve, poor fit]"
same,Potency,[5],"inconclusive: 126 nM [cytotoxic, full curve, poor fit]"
same,Potency,[8],inactive
same,Potency,[6],"inconclusive: 282 nM [cytotoxic, partial curve, poor fit]"
CC1=CC2(O)/C=C/C(C)(O)C(O)C(O)/C=C/C(=O)OC23C(=O)NC(CC(C)C)C3C1C (stereo unspecified),Potency,[2],"inconclusive: 17800 nM [cytotoxic, single point]"
COc1c(C(C)C)cc2c(c1O)[C@@]1(C(=O)O)CCCC(C)(C)C1CC2 (stereo partly specified),Potency,[2],inactive
same,Potency,[7],inactive
same,Potency,[5],inactive
c1cc2c(c(N3CCNCC3)c1)OCCO2,Potency,[2],inactive
COC(=O)[C@@H](N)CCCN/C(N)=N/[N+](=O)[O-],Potency,[2],"inconclusive: 158 nM [rising, single point]"
same,Potency,[3],inactive
CCOC(=O)c1cncn1C(C)c1ccccc1 (stereo unspecified),Potency,[2],"inconclusive: 11200 nM [rising, partial curve]"
same,Potency,[7],inactive
CCC(C)(OC(C)=O)C(=O)O[C@H]1[C@H](OC(C)=O)C[C@@H]2[C@@](C)([C@@H]3C[C@H]4C=CO[C@H]4O3)[C@H](C)C[C@H](OC(C)=O)[C@@]2(COC(C)=O)[C@@]12CO2 (stereo partly specified),Potency,[2],inactive
CCC1(CCC(C)C)C(=O)NC(=O)NC1=O,Potency,[2],"inconclusive: 3980 nM [rising, full curve]"
same,Potency,[4],"inconclusive: 2820 nM [cytotoxic, single point]"
Nc1ccc([N+](=O)[O-])cc1,Potency,[2],inactive
same,Potency,[3],"inconclusive: 70800 nM [cytotoxic, single point]"
CCOP(=O)(OCC)Oc1ccc2c(C)cc(=O)oc2c1,Potency,[2],inactive
same,Potency,[3],inactive
same,Potency,[5],"inconclusive: 39800 nM [cytotoxic, single point]"
same,Potency,[8],"inconclusive: 31600 nM [rising, single point]"
CCN1C[C@]2(OC(=O)c3ccccc3NC(C)=O)CC[C@H](OC)[C@@]34[C@@H]2C[C@@H]([C@@H]13)[C@@]1(O)C[C@H](OC)[C@H]2C[C@@H]4[C@]1(O)[C@H]2OC,Potency,[2],"inconclusive: 708 nM [rising, partial curve, poor fit]"
same,Potency,[7],inactive
COC(=O)C(Cl)C(=O)OC,Potency,[2],"inconclusive: 7080 nM [rising, single point]"
C[C@H]1CCC/C=C/C2C[C@H](O)C[C@H]2[C@H](O)/C=C/C(=O)O1 (stereo partly specified),Potency,[2],active: 316 nM
same,Potency,[7],active: 1000 nM
same,Potency,[5],active: 891 nM
same,Potency,[8],active: 891 nM
same,Potency,[6],active: 316 nM
COC[C@@H](NC(C)=O)C(=O)NCc1ccccc1,Potency,[2],inactive

# Reference: PubChem BioAssay (NCATS)
